Results from the supplement of paper PMC10126150.
Sequences with one replicate were seen in a single cluster, so their values are uncertain.

System: ATP
Assay: switch fluorescence ratio, 500 uM ATP over buffer (Cy3 cluster intensity, sum of 5 cycles each) (fold (ratio)); higher = stronger signal-on switching upon ATP binding; sequences stand for … in TCGTCGGCAGCGTCAGATGTGTATAAGAGACAGTTTTTTTTTTTTTTTTTTTTTTTTT…TC
Conditions: aptamer strand: ATP DNA aptamer (quencher-CACCTGGGGGAGTATTGCGGAGGAAGG + anchor), 100 nM annealed; ATP concentration: 500 uM; one replicate
Procedure, shortened: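 Cy3-labelled switching-strand clusters on a modified Illumina MiSeq flow-cell were annealed to 100 nM quencher-labelled ATP aptamer and imaged first in selection buffer, then after 15 min with 500 uM ATP at 22 °C. NaOH stripping and re-annealing separated each of five buffer/ATP cycles, and clusters outside 100-1000 RFU were excluded. The fluorescence ratio sums target-cycle Cy3 intensity over buffer-cycle Cy3 intensity per cluster and averages it per switch-domain sequence.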
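Note: ATP exposure 15 min at 22 °C before imaging.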

Row | Sequence | switch fluorescence ratio
1 | TTCGATCCGG | 0.939
2 | AGGGCGGCGG | 0.985
3 | GGGATTGTTC | 0.966
4 | CCTTAACAAT | 2.32
5 | ATGTACCTAA | 1.19
6 | GGTTATGATC | 0.986
7 | GTGACGTGTG | 1.03
8 | CATTCTACGG | 1.05
9 | GCAACGTGGA | 0.999
10 | TCGTATTAT | 0.982
11 | ATCAAGGCGT | 0.991
12 | TCGTTGAGCT | 0.981
13 | GGGGCAGGCA | 0.938
14 | TCAAGACAGC | 0.975
15 | CTATTTAGTG | 1
16 | CATTTACGGA | 0.987
17 | TAACGACACA | 1.55
18 | TAGTATGG | 0.974
19 | GTTATAGCGA | 0.986
20 | GCCAAAAAA | 0.999
21 | GGTCCCAGTG | 1.23
22 | GCACTGCCGA | 1.09
23 | GATGCCGGTA | 0.969

Row | Sequence | switch fluorescence ratio
24 | TAGATAGGAA | 1.01
25 | ATTCTTTAGT | 1.04
26 | CCGTCCTATA | 1.32
27 | TTTTCGTTGG | 1.01
28 | GGTTTGGATT | 0.969
29 | GGGGAGCCGA | 1.02
30 | CTCCTAACCG | 1.11
31 | TTGATGTTT | 0.96
32 | CTACGGGTCA | 1.02
33 | ATCCATACCA | 1.04
34 | CAGACCGCCA | 1.58
35 | CAGCATTTAC | 2.82
36 | GGGGCTTTGT | 1.01
37 | AACTAAACTG | 1.13
38 | AATCCGCTTG | 1.16
39 | ATAAGTGGCC | 1.03
40 | CTGAATAGAT | 1.05
41 | ATAATCTGC | 1
42 | AGCTTTGGCG | 0.966
43 | TTCCACAGAG | 1.31
44 | AAGGACGGT | 1.03
45 | GAATTCGGCC | 0.985
46 | TTCATGGCGG | 1.02

Row | Sequence | switch fluorescence ratio
47 | ACTAAATACG | 1.12
48 | GAACTATGGT | 1.15
49 | TGGCTGCATT | 1.08
50 | TTCGGGTGCA | 1.01
51 | CTGCCGGTTT | 0.989
52 | GACGCTATTC | 2.55
53 | CTTGCGGCG | 1.06
54 | ATCAATGACA | 1.04
55 | GAGTACCGAG | 1.07
56 | ACTTCTGGCG | 1.05
57 | CTGCCCGAAT | 0.956
58 | CATACTTGTG | 1
59 | ATTTCAACAG | 1.03
60 | AATTAGGCCT | 1.04
61 | AATGACATTA | 0.962
62 | CAACAGAGCC | 1.02
63 | ATAGCGTGG | 1.01
64 | GGAGCCTGCT | 0.99
65 | TTCATTTACT | 1.06
66 | TGGCTTCGCA | 1.14
67 | GAAGCGGTCG | 1.01
68 | GGGGGACAAT | 1.02
69 | TGTGTTCATG | 0.975

Row | Sequence | switch fluorescence ratio
70 | GGCAGAAAGC | 1
71 | AGTTAGAAA | 0.973
72 | TCGTATTGGA | 0.993
73 | TGGTGTTTCG | 0.98
74 | CTTACACCAT | 1.06
75 | AGTCTGGTT | 1.02
76 | AACGTGCCT | 1.03
77 | CACAACGTAG | 1.02
78 | GAGGGGTGAT | 1.07
79 | TATTCCGGTT | 0.96
80 | CCTTAAATAG | 1.72
81 | ATTGGAAGAG | 1.03
82 | CAGGTGTCGA | 1.1
83 | AGACAGCGGA | 1.02
84 | AGGAAGTGCA | 1.01
85 | ATACTGGAG | 1.09
86 | TCGGCCTGGT | 1.02
87 | CTCCAATATG | 1.63
88 | TTTAGAGACT | 0.984
89 | CAGGGAGCGT | 0.997
90 | CCGGTCGCAC | 3.18
91 | CCTAGTGAAG | 1.03
92 | AATGTTCTAC | 1.02

Row | Sequence | switch fluorescence ratio
93 | CATCGCACGG | 1.33
94 | CACTACGGAA | 2.73
95 | GTGTTGACTG | 0.805
96 | GCAATAGCCC | 3.32
97 | AGCCGAAGTC | 0.972
98 | TTTGTATTCT | 0.943
99 | TTAATGTGAG | 0.953
100 | TCTGAGCGCA | 1.73
101 | TTGTGTCCC | 0.97
102 | GAAAAGTAAT | 0.989
103 | CCTGATACAG | 1.03
104 | TCGGTGTGGG | 0.987
105 | CGTGTGTTAG | 1.01
106 | ATCTGTTGCA | 1.09
107 | GTTGAGACGT | 1.02
108 | TTCGACATAT | 0.99
109 | TTTAGCGGT | 1.02
110 | AGTATCAGGG | 0.967
111 | TGCCGGCGTC | 1.02
112 | GATGAACGGT | 0.997
113 | TATTTACTG | 1.06
114 | AGCTGTCAGT | 0.997
115 | AAATAGTGGT | 0.981

Row | Sequence | switch fluorescence ratio
116 | CTTAGTAACT | 1
117 | TTTCTCGGA | 1.05
118 | TCTCGCCGAA | 1.06
119 | AAGCCTTTAC | 1.28
120 | GAATTGAGAG | 0.916
121 | ATGGACATAA | 1.05
122 | CGTTGAAATG | 0.976
123 | ATACTTGATA | 0.979
124 | ATGAATCACC | 1.03
125 | GTAAGTCCGC | 1.11
126 | TCTATCGGGG | 0.972
127 | GCAGGAAGTG | 0.997
128 | GAGTGCTGGT | 0.955
129 | ATCCCTTAGG | 1.62
130 | AGTGAAAAT | 0.995
131 | GAACAGCT | 1.04
132 | GATGTGGAAT | 1.36
133 | TCACCTGTAC | 1.36
134 | CTAGTACATT | 1.05
135 | TTTATACGTG | 0.974
136 | ATTAACACGG | 1.03
137 | CTCGCAAAAT | 2.6
138 | GCAGTTGCAT | 1

Row | Sequence | switch fluorescence ratio
139 | TTCATAGAGG | 1.01
140 | TGTGGTACGA | 1.04
141 | CTGTATAATC | 1.04
142 | TAACAGGGGC | 1.13
143 | ATATACTGGG | 1.04
144 | GCATGCCTTC | 1.03
145 | TGAGCGATAT | 1.92
146 | GTGTCTATGA | 1.03
147 | TACACCAGCT | 1.05
148 | TGCAATGGTA | 1.05
149 | TGGCCAATTC | 1.01
150 | TGGACGTTA | 1.13
151 | AAATGGGGGC | 0.997
152 | GTCAATTTTC | 0.98
153 | TACTATTTA | 1.06
154 | CGTATTAAAC | 1
155 | ATGCTTTAGC | 0.932
156 | TTTTGGGGG | 0.991
157 | TCGCAGGTCA | 1.05
158 | AGTAAGTAGC | 0.962
